Experimental data from PubChem BioAssay (Tox21).
Inconclusive results, whose numbers are uncertain, are shown with a selection of clear calls. Entries that show only a call come without a potency. For part of these data: Where the call is inconclusive, the potency comes from a doubtful curve fit. Some structures have more than one record in an assay (separate samples or runs), and their calls can disagree. The source made the active and inactive calls. Unless noted, calls follow the shape of the full dose curve.

How the values were obtained:
[1] = qHTS assay to identify small molecule agonists of the hypoxia (HIF-1) signaling pathway - cell viability counter screen (AID 1224844); conditions: HRE-bla ME-180 viability, CellTiter-Glo luminescence, 17 h; series mostly up to 76.8 µM; also: nearly all actives have a fitted effect of over 50% in size; also: potency is read from the fitted curve at half-maximal effect
How it was run: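 Cells (HRE-bla ME-180, 2,000 per well) sat 5 hrs at 37C, got compound for 17 hrs, were read for CCF4-AM FRET, and were finally lysed with CellTiter-Glo for a 30 min room-temperature luminescence read.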

[2] = qHTS assay to identify small molecule agonists of H2AX (AID 1224845; active = well fitted activation curve with a large enough effect in the signal ratio in the repeat runs, not every such curve was filed as active; inconclusive = weak or mixed curves; the % refers to the signal ratio; also: potency is read from the fitted curve at half-maximal effect); conditions: CHO-K1 phospho-H2AX Ser139 HTRF, 3 h; activation (H2AX phosphorylation): at 154 µM (top of the series) unless noted
How it was run: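 Wild-type CHO-K1 cells plated overnight, then exposed 3 hr at 37C to compounds at 15 concentrations (0.76% DMSO). Lysed, then HTRF anti-pH2AX(S139)-cryptate/anti-H2AX-d2 detection after 24 hr at room temperature; emissions 665 and 620 nm.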

[3] = qHTS assay to identify small molecule antagonists of the estrogen related receptor (ERR) signaling pathway from Tox21 library (AID 1224848; active = well fitted curve in the direction sought with a large enough effect in the repeat runs; inconclusive = weak or mixed curves; inactive = no such curve, though single readings can be large; an effect the other way counts as inactive or inconclusive; also: nearly all actives have a fitted effect of over 50% in size; also: potency is read from the fitted curve at half-maximal effect); conditions: ERR reporter cell line, luciferase antagonist mode, 18 h; series mostly up to 92.4 µM
How it was run: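 Screening used an ERR reporter line supplied by NTP, exposed for 18 h at 37 C to library compounds delivered in DMSO. Signal was luciferase luminescence developed with ONE-Glo at room temperature for 30 min.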

[4] = qHTS assay to identify small molecule agonists of H2AX - cell viability counter screen (AID 1224847); conditions: CHO-K1 viability, CellTiter-Glo luminescence, 3 h; series mostly up to 154 µM; also: nearly all actives have a fitted effect of over 30% in size; also: potency is read from the fitted curve at half-maximal effect
How it was run: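 After overnight plating of 1000 CHO-K1 cells per well, a 15-concentration compound series was applied for 3 hr at 37C. Luminescence from CellTiter-Glo, read following 30 min at room temperature, reflected cell viability.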

[5] = qHTS assay to identify small molecule agonists of the hypoxia (HIF-1) signaling pathway (AID 1224846; active = well fitted activation curve with a large enough effect in the signal ratio in the repeat runs, not every such curve was filed as active; inconclusive = weak or mixed curves; the % refers to the signal ratio; also: potency is read from the fitted curve at half-maximal effect); conditions: HRE-bla ME-180 cells, beta-lactamase ratio, 17 h; activation: at 76.8 µM (top of the series) unless noted
How it was run: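 A low-serum medium (0.5% dialyzed FBS) holding 2,000 HRE-bla ME-180 cells per well is preincubated for 5 hrs, dosed with compounds by pintool, and kept a further 17 hrs at 37C, 5% CO2 before CCF4-AM FRET detection of beta-lactamase.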

[6] = qHTS assay to identify small molecule agonists of the estrogen related receptor (ERR) signaling pathway from Tox21 library (AID 1224849); conditions: ERR reporter cell line, ONE-Glo luciferase, 18 h; at 92.4 µM (top of the series); also: nearly all actives have a fitted effect of over 15% in size
How it was run: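 Screening used an NTP-provided ERR luciferase cell line. Compounds in DMSO were added 6 h after seeding and left 18 h at 37 C before a 30 min ONE-Glo step and luminescence reading.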

[7] = qHTS RealTime-Glo MT Cell Viability Assay in HEK293 cells - 32 hour (AID 1224868; active = well fitted curve in the direction sought with a large enough effect in the repeat runs; inconclusive = weak or mixed curves; inactive = no such curve, though single readings can be large; an effect the other way counts as inactive or inconclusive; also: nearly all actives have a fitted effect of over 50% in size; also: potency is read from the fitted curve at half-maximal effect); conditions: RealTime-Glo luminescence; series mostly up to 76.8 µM
How it was run: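 Luminescence generated by NanoLuc from substrate produced by living HEK293 cells served as the viability signal. Each value reflects the reading at its stated time point during continuous 40 h compound exposure at 37 C.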
Tags tell the direction and shape of the fitted curve or compound fluorescence and quenching.

Which results are given for O=C(O)Cc1sc(-c2ccccc2)nc1-c1ccc(Cl)cc1?
Potency [1]: inconclusive: 23.9 µM [cytotoxic, partial curve, poor fit]; Potency [2]: inconclusive: 24.7 µM [fluorescent, partial curve, poor fit]; Potency [3]: inconclusive: 33.5 µM [inhibitor, partial curve, poor fit]

Which results are given for CCCCCCCCCCCC[N+](C)(C)CC(=O)[O-]?
Potency [1]: inactive; Potency [4]: inconclusive: 56.6 µM [cytotoxic, partial curve]

What does the source list for NCCCOCCOCCOCCCN?
Potency [1]: active: 15.5 µM; Potency [5]: inconclusive: 30.9 µM [rising, partial curve]

For CC(C)(C)NCCO, which Potency [1] is on record?
Its Potency is inconclusive: 34.7 µM [cytotoxic, partial curve].

What about the Potency [2] of the same compound?
The Potency was “inactive”.

And the Potency [3]?
Its Potency is “inactive”.

Which Potency [4] does the source give for C=CCOCC(O)CO (stereo not given) here?
Its Potency is inconclusive: 1.6 µM [cytotoxic, single point].

With CCCC(C)CO (stereo not given) as the compound, how does the Potency [2] read?
The Potency was “inactive”.

What about the Potency [4] of the same compound?
The Potency was “inactive”.

For Cc1cc(C)c(N)c(Cl)c1, which Potency [2] is on record?
The Potency was “inactive”.

For CC(=O)OCC(CCn1cnc2cnc(N)nc21)COC(C)=O, which Potency [2] is on record?
Its Potency is “inactive”.

What does the source list for CC(C)(C)c1ccc(OCC2CO2)cc1 (stereo not given)?
activation (H2AX phosphorylation) [2]: inconclusive: 10.1%; Potency [4]: inconclusive: 103 µM [cytotoxic]

What does the source list for O=C(O)c1c2ccccc2cc2ccccc12?
Potency [2]: inconclusive: 63.4 µM [falling, partial curve]; Potency [5]: inconclusive: 54.8 µM [falling, single point]

With CC(C(=O)O)c1ccc(C(=O)c2ccccc2)s1 (stereo not given) as the compound, how does the Potency [2] read?
Its Potency is inconclusive: 24.7 µM [rising, partial curve].

Which Potency [2] does the source give for CC(C)CC(=O)CC(C)CC(C)C (stereo not given) here?
Its Potency is inconclusive: 127 µM [rising, single point].

And the Potency [4]?
The Potency was “inactive”.

For CC(=O)N(CC(O)CN(C(C)=O)c1c(I)c(C(=O)NCC(O)CO)c(I)c(C(=O)NCC(O)CO)c1I)c1c(I)c(C(=O)NCC(O)CO)c(I)c(C(=O)NCC(O)CO)c1I (stereo not given), which Potency [2] is on record?
Its Potency is “inactive”.

Which Potency [2] does the source give for CCOC(=O)c1cc(=O)c2c(OCC(COc3cccc4oc(C(=O)OCC)cc(=O)c34)OC(=O)[C@@H](N)CCCCN)cccc2o1 here?
The Potency was “inactive”.

With COc1cc(NC(=O)CC(C)=O)c(OC)cc1Cl as the compound, how does the Potency [2] read?
Its Potency is inconclusive: 114 µM [falling, partial curve, poor fit].

What about the Potency [5] of the same compound?
The Potency was “inactive”.

What about the Potency [3] of the same compound?
Its Potency is inconclusive: 54.5 µM [inhibitor, partial curve].

What does the source list for CCC(C)(CCCC(C)C)OC(C)=O (stereo not given)?
Potency [2]: inactive; Potency [5]: inactive

For Cc1ncc([N+](=O)[O-])n1CCO, which Potency [2] is on record?
Its Potency is inconclusive: 131 µM [falling, partial curve, poor fit].

Which results are given for COc1ccc(Nc2ccccc2)c(C)c1?
Potency [2]: inactive; Potency [4]: active: 101 µM; activity change, positive = activation [6]: inconclusive: 13.8%; Potency [7]: inconclusive: 43.6 µM [cytotoxic, partial curve, poor fit]

With N[C@@H](Cc1c[nH]c2ccc(O)cc12)C(=O)O as the compound, how does the Potency [2] read?
Its Potency is inconclusive: 97.9 µM [falling, partial curve].

With COC(C)(C)CCO as the compound, how does the Potency [2] read?
Its Potency is “inactive”.

With CCN(CCCCOC(=O)c1ccc(OC)c(OC)c1)C(C)Cc1ccc(OC)cc1 (stereo not given) as the compound, how does the Potency [2] read?
Its Potency is “inactive”.

And the Potency [3]?
The Potency was inconclusive: 21.1 µM [inhibitor, partial curve, poor fit].

What about the Potency [7] of the same compound?
The Potency was inconclusive: 23.9 µM [cytotoxic, partial curve].

For O=c1[nH]c2ccc(S(=O)CCN3CCC(Cc4ccc(F)cc4)CC3)cc2o1 (stereo not given), which Potency [2] is on record?
Its Potency is “inactive”.

And the Potency [4]?
The Potency was inconclusive: 127 µM [cytotoxic, partial curve, poor fit].

And the Potency [3]?
The Potency was inconclusive: 61.1 µM [inhibitor, partial curve].

Which Potency [2] does the source give for O=C[O][Al]([O]C=O)[O]C=O here?
The Potency was inconclusive: 113 µM [rising, single point].

With Cn1cnc2c(=O)[nH]c(N)nc21 as the compound, how does the Potency [2] read?
Its Potency is “inactive”.

What about the Potency [4] of the same compound?
Its Potency is “inactive”.

And the Potency [7]?
Its Potency is “inactive”.

For CC(CCl)OC(C)CCl (stereo not given), which Potency [2] is on record?
Its Potency is “inactive”.

For O=c1[nH]c(=O)c2cn[nH]c2[nH]1, which Potency [2] is on record?
Its Potency is “inactive”.

And the Potency [4]?
Its Potency is inconclusive: 1.79 µM [cytotoxic, single point].

What about the Potency [3] of the same compound?
The Potency was inconclusive: 77 µM [inhibitor, single point].

With O=C(O)Cc1c[nH]c2ccccc12 as the compound, how does the Potency [2] read?
The Potency was “inactive”.

What about the Potency [5] of the same compound?
Its Potency is “inactive”.

What about the Potency [3] of the same compound?
Its Potency is “inactive”.

With CC(C)COC(=O)c1ccccc1 as the compound, how does the Potency [2] read?
The Potency was “inactive”.

What about the Potency [4] of the same compound?
The Potency was “inactive”.

Which results are given for CC(=O)OC/C=C(\C)CCC=C(C)C?
Potency [2]: inactive; Potency [4]: inactive

With CC/C(=C\C(=N/O)C(N)=O)C(C)[N+](=O)[O-] (stereo not given) as the compound, how does the Potency [2] read?
Its Potency is inconclusive: 127 µM [falling, single point].

What does the source list for C1CCC2OC2C1 (stereo not given)?
Potency [2]: inactive; Potency [5]: inactive
